These results are taken from PMC8476856 (Developmental cell, 2021).

This data set concerns the molecule itself. The data set is described as follows: in vitro microtubule dynamics assay.

The term koff denotes a measure of how fast the partners let go of each other. As a reminder, the kon is the rate constant with which the complex forms. The low end stands for slow association, the high end for fast association.

B1: recombinant human α1A∆-tail/βIII tubulin (complex)
chain 1: [letters of about 450 residues not shown]
chain 2: MREIVHIQAGQCGNQIGAKFWEVISDEHGIDPSGNYVGDSDLQLERISVYYNEASSHKYVPRAILVDLEPGTMDSVRSGAFGHLFRPDNFIFGQSGAGNNWAKGHYTEGAELVDSVLDVVRKECENCDCLQGFQLTHSLGGGTGSGMGTLLISKVREEYPDRIMNTFSVVPSPKVSDTVVEPYNATLSIHQLVENTDETYCIDNEALYDICFRTLKLATPTYGDLNHLVSATMSGVTTSLRFPGQLNADLRKLAVNMVPFPRLHFFMPGFAPLTARGSQQYRALTVPELTQQMFDAKNMMAACDPRHGRYLTVATVFRGRMSMKEVDEQMLAIQSKNSSYFVEWIPNNVKVAVCDIPPRGLKMSSTFIGNSTAIQELFKRISEQFTAMFRRKAFLHWYTGEGMDEMEFTEAESNMNDLVSEYQQYQDATAEEEGEMYEDDEEESEAQGPK
Protein B1 returned a koff of 0.35 s⁻¹ and a kon of 8.5e+06 M⁻¹ s⁻¹.
